Some of the results follow. These are noisy estimates, calculated here from bound and input reads.

For the experiment, the target named is T1, Pho4 (S. cerevisiae) (UniProt P07270).
T1 sequence: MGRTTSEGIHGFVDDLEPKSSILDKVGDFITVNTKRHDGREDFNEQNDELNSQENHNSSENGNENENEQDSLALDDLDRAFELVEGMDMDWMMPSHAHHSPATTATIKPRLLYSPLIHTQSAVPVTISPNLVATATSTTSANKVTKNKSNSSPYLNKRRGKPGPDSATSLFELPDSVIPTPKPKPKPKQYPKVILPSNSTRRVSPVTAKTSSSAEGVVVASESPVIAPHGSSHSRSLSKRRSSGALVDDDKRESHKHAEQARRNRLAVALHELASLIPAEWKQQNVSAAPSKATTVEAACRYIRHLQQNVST
Nature of the experiment: relative binding free energy (BET-seq); higher = weaker binding. The following applies: reference: library average.
ATGGTCACGTGTGTCC: the “relative binding free energy” value stood at 0.18 kcal/mol.

Regarding AGGGACACGTGGGAAA, the “relative binding free energy” value was 0.09 kcal/mol.

As for TGAGACACGTGTGGGA, the “relative binding free energy” value came out at 0.09 kcal/mol.

Consider ATTCTCACGTGTTGAA, for which the “relative binding free energy” value came out at 0.29 kcal/mol.

Take TGGGTCACGTGCAACG: the “relative binding free energy” value amounted to 0.32 kcal/mol.

As to TGGCACACGTGGGTGA, the “relative binding free energy” value was -0.13 kcal/mol.

For ATTTACACGTGTAGAA, the “relative binding free energy” value was found to be 0.19 kcal/mol.

On to GTAATCACGTGGTGGA, for which the “relative binding free energy” value was 0.08 kcal/mol.

For TTGTCCACGTGGGGCT, the “relative binding free energy” value was -0.26 kcal/mol.

In the case of GCTGGCACGTGTGAAG, the “relative binding free energy” value stood at 0.02 kcal/mol.

For the sequence GATTTCACGTGACGTG, the “relative binding free energy” value was 0.59 kcal/mol.

As for GTTGACACGTGAGTGC, the “relative binding free energy” value is 0.3 kcal/mol.

On to AATGGCACGTGATGAA, for which the “relative binding free energy” value worked out at 0.13 kcal/mol.

As to GTTCTCACGTGTTGAG, the “relative binding free energy” value was determined as 0.29 kcal/mol.

As for AGTTGCACGTGTGGTT, the “relative binding free energy” value stood at 0.02 kcal/mol.

As for CAGATCACGTGTTAGT, the “relative binding free energy” value is 0.24 kcal/mol.

In the case of TAGTCCACGTGTGTGC, the “relative binding free energy” value came to 0.07 kcal/mol.

Turning to TTGCTCACGTGGTAAG, the “relative binding free energy” value was 0.14 kcal/mol.

As for CATTTCACGTGGTTAG, the “relative binding free energy” value was 0.18 kcal/mol.

On to TATGTCACGTGCATAT, for which the “relative binding free energy” value came out at 0.05 kcal/mol.

Regarding GAGTTCACGTGAGTGT, the “relative binding free energy” value came to 0.4 kcal/mol.

Consider CGTGGCACGTGAATTG, for which the “relative binding free energy” value was 0.2 kcal/mol.

For the sequence GGTAACACGTGAGATT, the “relative binding free energy” value was 0.37 kcal/mol.

Take TTTTGCACGTGAATAA: the “relative binding free energy” value was 0.15 kcal/mol.

Regarding TGGGGCACGTGCAGAT, the “relative binding free energy” value is -0.05 kcal/mol.

TTCGACACGTGTTATG: the “relative binding free energy” value came to 0.01 kcal/mol.

With CAGGGCACGTGGTGAG, the “relative binding free energy” value was -0.22 kcal/mol.

For GGTTACACGTGGGTCT, the “relative binding free energy” value was -0.19 kcal/mol.

Consider ACGTGCACGTGTTGCG, for which the “relative binding free energy” value was 0.03 kcal/mol.

Turning to TGGGTCACGTGCATTA, the “relative binding free energy” value was determined as 0.13 kcal/mol.

In the case of GGAAACACGTGTTTGG, the “relative binding free energy” value was -0.01 kcal/mol.

For the sequence ACTTGCACGTGAAGGT, the “relative binding free energy” value stood at 0.13 kcal/mol.

As for TGGGACACGTGCTGTT, the “relative binding free energy” value is -0.09 kcal/mol.

As to GCGGTCACGTGGAAAT, the “relative binding free energy” value came to 0.35 kcal/mol.

With CGTTGCACGTGGGACG, the “relative binding free energy” value is -0.01 kcal/mol.

With CATTACACGTGAGTTG, the “relative binding free energy” value stood at 0.2 kcal/mol.

Consider CAGAGCACGTGTAGGT, for which the “relative binding free energy” value is -0.16 kcal/mol.

Turning to TGCTACACGTGGATAT, the “relative binding free energy” value was 0.29 kcal/mol.

For TCAAGCACGTGGTTAG, the “relative binding free energy” value was -0.16 kcal/mol.

Turning to CGTGTCACGTGAGGTG, the “relative binding free energy” value amounted to 0.27 kcal/mol.

With TATCGCACGTGTGGGG, the “relative binding free energy” value was -0.05 kcal/mol.

As to CAGTGCACGTGGGTTA, the “relative binding free energy” value is -0.27 kcal/mol.

With CTGGACACGTGGTGAT, the “relative binding free energy” value is 0.02 kcal/mol.

TTCGACACGTGGGGGG: the “relative binding free energy” value is -0.06 kcal/mol.

Regarding GGTTACACGTGGAGCT, the “relative binding free energy” value turned out to be 0.17 kcal/mol.

As to AGAATCACGTGATGTT, the “relative binding free energy” value is 0.28 kcal/mol.

As to AGAATCACGTGATTTT, the “relative binding free energy” value came to 0.22 kcal/mol.

Regarding TACCTCACGTGGGGGG, the “relative binding free energy” value amounted to 0.08 kcal/mol.

Take TATAACACGTGTGAGA: the “relative binding free energy” value turned out to be 0.07 kcal/mol.

With TAATTCACGTGAGTGG, the “relative binding free energy” value is 0.54 kcal/mol.

With CTTGTCACGTGTAATG, the “relative binding free energy” value amounted to 0.21 kcal/mol.

With AGGTTCACGTGCAGTT, the “relative binding free energy” value came out at 0.29 kcal/mol.

In the case of GGTATCACGTGCGTGG, the “relative binding free energy” value was 0.11 kcal/mol.

On to GGAGGCACGTGCGGCT, for which the “relative binding free energy” value was -0.05 kcal/mol.

Take TGGGTCACGTGAGTCC: the “relative binding free energy” value was 0.32 kcal/mol.

As to TGTACCACGTGGCGTT, the “relative binding free energy” value was -0.18 kcal/mol.

As for TTTCGCACGTGGCGTT, the “relative binding free energy” value was -0.17 kcal/mol.

Consider AAGGACACGTGGGTTT, for which the “relative binding free energy” value was -0.02 kcal/mol.

As to GGGGCCACGTGAAAGT, the “relative binding free energy” value was determined as 0.12 kcal/mol.

For the sequence TTGTTCACGTGAGACT, the “relative binding free energy” value was 0.41 kcal/mol.

For the sequence GGATTCACGTGAGGTC, the “relative binding free energy” value worked out at 0.55 kcal/mol.

In the case of GTTTTCACGTGATGCT, the “relative binding free energy” value stood at 0.33 kcal/mol.

As for ATGAACACGTGTTGGG, the “relative binding free energy” value came to 0.06 kcal/mol.

Take CGGTACACGTGGCGTG: the “relative binding free energy” value is -0.1 kcal/mol.

For the sequence GGGAGCACGTGGGGCA, the “relative binding free energy” value is -0.49 kcal/mol.

Turning to TGGTGCACGTGATCGT, the “relative binding free energy” value was -0.09 kcal/mol.

For GGCCGCACGTGGGTAG, the “relative binding free energy” value is -0.07 kcal/mol.

Turning to TGTATCACGTGATTTG, the “relative binding free energy” value was determined as 0.22 kcal/mol.

In the case of TGGCTCACGTGCGAGG, the “relative binding free energy” value is 0.27 kcal/mol.

As to ATGTCCACGTGTATGG, the “relative binding free energy” value was -0.08 kcal/mol.

For ATAGCCACGTGTGTAG, the “relative binding free energy” value was -0.1 kcal/mol.

Take GGCTGCACGTGGGCAT: the “relative binding free energy” value is -0.11 kcal/mol.

As for GAAAGCACGTGAGTGT, the “relative binding free energy” value amounted to 0.39 kcal/mol.

As to TCGAGCACGTGGGTTT, the “relative binding free energy” value is -0.11 kcal/mol.

Regarding TAGCGCACGTGTTGGC, the “relative binding free energy” value is 0.03 kcal/mol.

TGGAACACGTGGGATT: the “relative binding free energy” value stood at 0 kcal/mol.

For AGCAGCACGTGGGATG, the “relative binding free energy” value was -0.2 kcal/mol.

Take GCTGGCACGTGGGTCG: the “relative binding free energy” value is -0.24 kcal/mol.

Take GTGCACACGTGGGTTG: the “relative binding free energy” value was -0.19 kcal/mol.

On to GGCTTCACGTGAAAGG, for which the “relative binding free energy” value stood at 0.54 kcal/mol.

Take TTGTCCACGTGGTTAA: the “relative binding free energy” value was 0 kcal/mol.

On to CTTGACACGTGGATGG, for which the “relative binding free energy” value was -0.05 kcal/mol.

Take TTGAGCACGTGAGTCG: the “relative binding free energy” value was 0.24 kcal/mol.

Regarding ATGTTCACGTGAAATA, the “relative binding free energy” value was 0.28 kcal/mol.

Turning to GCGTTCACGTGGGCTG, the “relative binding free energy” value is 0.28 kcal/mol.

As to GCATGCACGTGAATGG, the “relative binding free energy” value was 0.35 kcal/mol.

AAGGACACGTGATTGG: the “relative binding free energy” value was determined as 0.23 kcal/mol.

With TGATGCACGTGGACGT, the “relative binding free energy” value is -0.11 kcal/mol.

In the case of GTTAGCACGTGGTCTG, the “relative binding free energy” value is -0.19 kcal/mol.

Consider GAGGCCACGTGGAGGG, for which the “relative binding free energy” value is -0.05 kcal/mol.

With GACTGCACGTGCGGTG, the “relative binding free energy” value came out at 0.02 kcal/mol.

Regarding TGGCTCACGTGAGTAT, the “relative binding free energy” value amounted to 0.3 kcal/mol.

Consider TTAAACACGTGGTAGT, for which the “relative binding free energy” value came to 0.08 kcal/mol.

Turning to ATAGGCACGTGTGTAC, the “relative binding free energy” value is -0.2 kcal/mol.

As to GCTGACACGTGTGGTG, the “relative binding free energy” value came out at 0.1 kcal/mol.

In the case of TGTCTCACGTGAAGGT, the “relative binding free energy” value is 0.21 kcal/mol.

Consider AAGTACACGTGATGGG, for which the “relative binding free energy” value was 0.28 kcal/mol.

With TCGTGCACGTGGTTTC, the “relative binding free energy” value was -0.03 kcal/mol.

As for TTGAGCACGTGGTTCA, the “relative binding free energy” value is -0.09 kcal/mol.

CGTTGCACGTGGGTCT: the “relative binding free energy” value is -0.14 kcal/mol.

With AGGTACACGTGGATGG, the “relative binding free energy” value is 0.01 kcal/mol.

As to CCAGTCACGTGGGGTG, the “relative binding free energy” value is -0.18 kcal/mol.

As for AGATGCACGTGTAGTT, the “relative binding free energy” value is -0.08 kcal/mol.

For the sequence TGTCTCACGTGATTTT, the “relative binding free energy” value amounted to 0.34 kcal/mol.

Consider TCCGGCACGTGGTGTT, for which the “relative binding free energy” value is -0.17 kcal/mol.

For TGGTCCACGTGAGGGT, the “relative binding free energy” value was found to be 0.18 kcal/mol.

For TAGGGCACGTGGTATC, the “relative binding free energy” value is -0.15 kcal/mol.

In the case of CGGTCCACGTGGGGGA, the “relative binding free energy” value is -0.25 kcal/mol.

Regarding TCAGGCACGTGGGTCA, the “relative binding free energy” value was -0.19 kcal/mol.

With GTCTGCACGTGAGGGC, the “relative binding free energy” value was determined as 0.28 kcal/mol.

For the sequence ATCTGCACGTGCATGG, the “relative binding free energy” value turned out to be 0.02 kcal/mol.

Regarding GTACGCACGTGGGGCG, the “relative binding free energy” value is -0.13 kcal/mol.

Regarding TGTCGCACGTGGTATT, the “relative binding free energy” value was -0.16 kcal/mol.

As to GTCGGCACGTGATTGG, the “relative binding free energy” value was determined as 0.03 kcal/mol.

Turning to ATAGTCACGTGAAGTG, the “relative binding free energy” value worked out at 0.2 kcal/mol.

Values taken from the BET-seq Pho4 binding data (Le et al. 2018).
